# No constants are given. Whether binding was seen depends on the method and setting. In cells and extracts the contact can be indirect. Some entries that bind do so weakly or less than the wild type. For some assays here: Tags and fused reporters may be left off the sequences shown.
# T1: Nuclear Receptor Subfamily 2 Group F, Member 2, isoform 1 (NR2F2-Iso1), full-length NR2F2 (human (endogenous in 4L and MeWo melanoma cells)) (UniProt P24468)
# T1 sequence: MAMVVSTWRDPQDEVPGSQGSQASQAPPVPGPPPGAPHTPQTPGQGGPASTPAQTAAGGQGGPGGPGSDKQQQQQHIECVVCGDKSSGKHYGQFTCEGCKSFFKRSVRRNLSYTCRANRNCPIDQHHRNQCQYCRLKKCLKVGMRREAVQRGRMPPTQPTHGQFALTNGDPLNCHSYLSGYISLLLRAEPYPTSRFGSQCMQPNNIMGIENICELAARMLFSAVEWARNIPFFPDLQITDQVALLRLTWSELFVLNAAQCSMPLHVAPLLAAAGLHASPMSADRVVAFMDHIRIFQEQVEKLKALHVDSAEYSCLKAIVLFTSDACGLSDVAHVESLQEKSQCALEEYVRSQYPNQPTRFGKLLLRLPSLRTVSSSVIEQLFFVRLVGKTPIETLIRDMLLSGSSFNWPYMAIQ
# T2: GFP-NR2F2-Iso2 Leucine 231 to Alanine (Iso2-m1) (human) (UniProt P24468)
# T2 sequence: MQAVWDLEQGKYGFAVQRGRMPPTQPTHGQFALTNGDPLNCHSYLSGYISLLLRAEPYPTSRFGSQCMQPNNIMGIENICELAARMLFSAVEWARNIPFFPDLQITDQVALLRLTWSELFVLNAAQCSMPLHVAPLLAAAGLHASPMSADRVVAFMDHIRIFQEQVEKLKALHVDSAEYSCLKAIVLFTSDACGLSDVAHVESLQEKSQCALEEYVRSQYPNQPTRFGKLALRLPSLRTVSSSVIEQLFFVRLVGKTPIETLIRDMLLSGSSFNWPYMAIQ
# T3: GFP-NR2F2-Iso2 Leucine 232 to Alanine (Iso2-m2) (human) (UniProt P24468)
# T3 sequence: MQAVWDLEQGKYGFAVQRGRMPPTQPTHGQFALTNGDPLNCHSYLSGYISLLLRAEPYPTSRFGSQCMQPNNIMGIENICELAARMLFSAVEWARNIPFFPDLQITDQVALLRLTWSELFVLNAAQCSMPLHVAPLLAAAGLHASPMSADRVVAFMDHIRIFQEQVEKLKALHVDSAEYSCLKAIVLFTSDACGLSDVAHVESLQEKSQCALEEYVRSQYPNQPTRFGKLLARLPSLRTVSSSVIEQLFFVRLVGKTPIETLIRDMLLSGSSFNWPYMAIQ
# T4: GFP-NR2F2-Iso2 Leucine 231 and Leucine 232 to Alanine (Iso2-m1m2) (human) (UniProt P24468)
# T4 sequence: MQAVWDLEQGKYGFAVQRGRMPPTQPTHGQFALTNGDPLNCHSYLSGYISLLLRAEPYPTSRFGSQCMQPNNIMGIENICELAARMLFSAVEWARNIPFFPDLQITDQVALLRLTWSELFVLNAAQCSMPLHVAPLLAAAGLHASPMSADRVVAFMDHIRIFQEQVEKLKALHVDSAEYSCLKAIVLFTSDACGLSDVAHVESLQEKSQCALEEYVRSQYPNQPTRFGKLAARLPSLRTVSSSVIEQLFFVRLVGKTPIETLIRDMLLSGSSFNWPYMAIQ
# T5: GFP-NR2F2-Iso2 (wild type) (human) (UniProt P24468)
# T5 sequence: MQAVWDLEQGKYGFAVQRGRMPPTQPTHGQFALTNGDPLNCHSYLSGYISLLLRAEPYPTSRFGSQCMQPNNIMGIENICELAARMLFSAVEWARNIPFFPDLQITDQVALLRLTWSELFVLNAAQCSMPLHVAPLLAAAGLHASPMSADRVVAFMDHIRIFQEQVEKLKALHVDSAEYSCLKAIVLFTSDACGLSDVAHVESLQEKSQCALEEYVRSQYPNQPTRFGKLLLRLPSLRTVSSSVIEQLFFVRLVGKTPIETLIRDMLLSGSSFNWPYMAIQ
# Columns and labels:
# [1] = target: T1, Nuclear Receptor Subfamily 2 Group F, Member 2, isoform 1 (NR2F2-Iso1), full-length NR2F2 (human (endogenous in 4L and MeWo melanoma cells)); assay: co-IP; NR2F2-Iso1 antibody (Abcam 41859 or Active Motif 61214) cross-linked with BS3 to Dynabeads Protein A; 1 mg 4L whole cell extract (native or formaldehyde cross-linked, not told which), lysis buffer 10 mM Tris/HCl pH 7.5, 150 mM NaCl, 0.5 mM EDTA, 0.5% NP-40, overnight at 4 °C; western blot with isoform-specific antibodies
# [2] = target: T2, GFP-NR2F2-Iso2 Leucine 231 to Alanine (Iso2-m1) (human); assay: co-IP; GFP Trap (ChromoTek) beads; 1 mg whole cell extract of MeWo cells transduced with GFP-NR2F2-Iso2 or its mutants (native or formaldehyde cross-linked, not told which), lysis buffer 10 mM Tris/HCl pH 7.5, 150 mM NaCl, 0.5 mM EDTA, 0.5% NP-40, overnight at 4 °C; western blot for endogenous NR2F2-Iso1
# [3] = target: T3, GFP-NR2F2-Iso2 Leucine 232 to Alanine (Iso2-m2) (human); assay: as above
# [4] = target: T4, GFP-NR2F2-Iso2 Leucine 231 and Leucine 232 to Alanine (Iso2-m1m2) (human); assay: as above
# [5] = target: T5, GFP-NR2F2-Iso2 (wild type) (human); assay: as above
Binder,binding [1],binding [2],binding [3],binding [4],binding [5]
"Nuclear Receptor Subfamily 2 Group F, Member 2, isoform 2 (NR2F2-Iso2) (protein, UniProt P24468-2 1-281) MQAVWDLEQGKYGFAVQRGRMPPTQPTHGQFALTNGDPLNCHSYLSGYISLLLRAEPYPTSRFGSQCMQPNNIMGIENICELAARMLFSAVEWARNIPFFPDLQITDQVALLRLTWSELFVLNAAQCSMPLHVAPLLAAAGLHASPMSADRVVAFMDHIRIFQEQVEKLKALHVDSAEYSCLKAIVLFTSDACGLSDVAHVESLQEKSQCALEEYVRSQYPNQPTRFGKLLLRLPSLRTVSSSVIEQLFFVRLVGKTPIETLIRDMLLSGSSFNWPYMAIQ",binds,,,,
"Nuclear Receptor Subfamily 2 Group F, Member 2, isoform 1 (NR2F2-Iso1), full-length NR2F2 (protein, UniProt P24468-1 1-414) MAMVVSTWRDPQDEVPGSQGSQASQAPPVPGPPPGAPHTPQTPGQGGPASTPAQTAAGGQGGPGGPGSDKQQQQQHIECVVCGDKSSGKHYGQFTCEGCKSFFKRSVRRNLSYTCRANRNCPIDQHHRNQCQYCRLKKCLKVGMRREAVQRGRMPPTQPTHGQFALTNGDPLNCHSYLSGYISLLLRAEPYPTSRFGSQCMQPNNIMGIENICELAARMLFSAVEWARNIPFFPDLQITDQVALLRLTWSELFVLNAAQCSMPLHVAPLLAAAGLHASPMSADRVVAFMDHIRIFQEQVEKLKALHVDSAEYSCLKAIVLFTSDACGLSDVAHVESLQEKSQCALEEYVRSQYPNQPTRFGKLLLRLPSLRTVSSSVIEQLFFVRLVGKTPIETLIRDMLLSGSSFNWPYMAIQ",,no binding,no binding,no binding,binds

# Source: publication PMC10073109
